Measured values as given in PubChem BioAssay AID1508623 (National Center for Advancing Translational Sciences (NCATS), 2021).
About 450 (0.94%) of roughly 48,000 compounds were called active. The inconclusive results got no clear call from the source; some entries with a clear call stand among them for comparison. Calls come from the whole dose curve; as a rule, active = well fitted inhibition curve with a large enough effect; inconclusive = small, poorly fitted or top-dose-only effect; inactive = no such curve, though single readings can be large or run the other way. Potencies of inconclusive entries are doubtful fits and often do not repeat.

Experiment: Primary qHTS for Identification of Small Molecule Inhibitors of Huntingtin Promoter Activity; note: nearly all actives have a fitted effect of over 50% in size
Details: HEK293 HTT promoter firefly luciferase reporter (activity 0% = vehicle and -100% = no light), 24 h; activity change, negative = inhibition: at 57.5 µM (top of the series)
Method in brief: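 Firefly luciferase signal from promoter-reporter HEK293 cells was scaled between vehicle (0%) and zero RLU (-100%). Compounds were tested at final concentrations of up to 57.5 uM over 24 h at 37 degrees C. PTC124 at 50 uM final served as control inhibitor.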
Potency is the fitted concentration of half-maximal effect; tags give direction and shape of the fitted curve.

SMILES	Potency	activity change, negative = inhibition
COc1ccc(Cl)cc1NC(=O)C1CCCN(c2ncnc3onc(C)c23)C1 (configuration not stated)	inconclusive: 25.1 µM [inhibitor, single point]	–
O=C(CCCN1C(=O)C(c2ccccc2)Oc2cccnc21)Nc1ccccc1C(F)(F)F (configuration not stated)	–	inactive: -10.1%
Cc1cccc(NC(=O)c2cc3c(=O)n4cccc(C)c4nc3s2)c1C	–	inactive: -22.4%
O=C1c2c(O)cc(O)cc2O[C@H](c2cc(O)c(O)c(O)c2)[C@H]1O	–	inactive: -12.1%
COc1ccc2c(c1)CCc1c(C(=O)Nc3c(C)nn(Cc4ccccc4C)c3C)noc1-2	inconclusive: 28.2 µM [inhibitor, partial curve, poor fit]	–
COc1cc(CNC(=O)c2ccc3nc(CCc4ccccc4)oc3c2)cc(OC)c1OC	inconclusive: 31.6 µM [inhibitor, single point]	–
CCNC(=O)Nc1ccc(-c2nc3c(c(N4CCOC[C@H]4C)n2)CCN(C2COC2)C3)cc1	inconclusive: 1.93 µM [inhibitor, full curve]	–
O=C(C1COc2ccccc2O1)N1CCN(c2nc3ccc(F)cc3s2)CC1 (configuration not stated)	inconclusive: 39.8 µM [inhibitor, single point]	–
CCOc1ccc(CNC(=O)CSc2cc(=O)n(CC)c3ccccc23)cc1	–	inactive: -15.6%
Fc1ccc(CNc2ncnc3onc(-c4ccc(F)cc4)c23)cc1	inconclusive: 25.1 µM [inhibitor, single point]	–
CCc1cccc(C)c1Nc1c(-c2ccccc2)nc2sccn12	inconclusive: 39.8 µM [inhibitor, single point]	–
CCOC(=O)N1CCN(Cc2nc3cc(NC(=O)c4ccccc4[N+](=O)[O-])ccc3n2C(C)C)CC1	inconclusive: 20 µM [inhibitor, partial curve, poor fit]	–
COCCCn1c(=N)c(C(=O)NCc2ccco2)cc2c(=O)n3ccccc3nc21	–	inactive: 5.99%
CCCCN(CC)C(=O)CSc1nc2n[nH]c(C)c2c(=N)n1-c1cccc(OC)c1	inconclusive: 15.8 µM [inhibitor, partial curve, poor fit]	–
Cc1oc(-c2ccc(Cl)cc2)nc1CS(=O)CC(=O)N1CCN(c2cccc(C(F)(F)F)c2)CC1 (configuration not stated)	inconclusive: 20 µM [inhibitor, partial curve, poor fit]	–
COc1cccc(N2CCN(c3ncnc4c3nc3n4CCCCC3)CC2)c1	inconclusive: 15.8 µM [inhibitor, partial curve, poor fit]	–
CN(C)S(=O)(=O)c1ccc2c(c1)N(CC(=O)Nc1ccc(OC(F)(F)F)cc1)C(=O)CS2	inconclusive: 39.8 µM [inhibitor, partial curve, poor fit]	–
CCCN(CCC)CC(O)Cn1cc(/C=C/C(=O)c2ccc(C)cc2)c2ccccc21 (configuration not stated)	inconclusive: 35.5 µM [inhibitor, single point]	–
CC(C)(C(=O)NCC(F)(F)C(F)(F)F)C(=O)N[C@@H]1C(=O)Nc2ccccc2-c2ccccc21	inconclusive: 38.5 µM [inhibitor, partial curve, poor fit]	–

SMILES	Potency	activity change, negative = inhibition
COc1ccc(NC(=O)CN2CCN(Cc3ccc(F)cc3)S2(=O)=O)cc1Cl	inconclusive: 31.6 µM [inhibitor, partial curve, poor fit]	–
CC(C(=O)NCc1ccc(Cl)cc1)n1ccc2cc(S(=O)(=O)N3CCCCCC3)ccc21 (configuration not stated)	inconclusive: 28.2 µM [inhibitor, single point]	–
CCOC(=O)c1c(C)[nH]c(C)c1S(=O)(=O)N1CCC(C(=O)N2CCN(c3cccc(Cl)c3)CC2)CC1	inconclusive: 31.6 µM [inhibitor, partial curve, poor fit]	–
CCCSc1ncc(Cl)c(C(=O)NCc2ccc(OC)cc2)n1	–	inactive: -36.1%
Cc1ccc2c(c1)N(S(=O)(=O)c1cc(-c3onc(C)c3C)ccc1C)CCO2	inconclusive: 25.1 µM [inhibitor, single point]	–
COc1ccccc1CNC(=O)CCn1c(=O)c2ccccc2n(CC(=O)Nc2ccc(Br)cc2F)c1=O	inconclusive: 31.6 µM [inhibitor, single point]	–
O=C(Nc1ccc(F)c(Cl)c1)C1CCN(S(=O)(=O)c2ccc3[nH]c(=O)ccc3c2)CC1	inconclusive: 39.8 µM [inhibitor, single point]	–
Cc1ccc(C(=O)Nc2nc3n(n2)C(c2ccc(F)cc2)C=C(c2ccccc2)N3)cc1 (configuration not stated)	inconclusive: 31.6 µM [inhibitor, single point]	–
COc1ccccc1NCc1cccn1-c1nnc(N2CCCCCC2)s1	inconclusive: 12.6 µM [inhibitor, partial curve]	–
CCOc1ccc(S(=O)(=O)Nc2ccc3oc(C)c(C(=O)OC(C)C)c3c2)cc1	inconclusive: 39.8 µM [inhibitor, partial curve, poor fit]	–
Cc1ccc(NC(=O)N2CCc3cc(S(=O)(=O)N4CCC(C)CC4)ccc32)cc1F	–	inactive: -17.7%
COc1ccc(C2c3c(n(C)c4ccccc34)C(=O)N2CC(=O)Nc2cc(Cl)ccc2C)cc1 (configuration not stated)	inconclusive: 39.8 µM [inhibitor, single point]	–
Cc1ccc2onc(CC(=O)Nc3cccc(C(F)(F)F)c3)c2c1	inconclusive: 25.1 µM [inhibitor, partial curve, poor fit]	–
CCOC(=O)c1c(NC(=O)CSc2cn(CCNC(=O)c3ccc(OC)c(OC)c3)c3ccccc23)sc2c1CCCC2	inconclusive: 35.5 µM [inhibitor, single point]	–
Cc1ccc(Cl)cc1-n1ncc2c(NCCCc3ccccc3)ncnc21	inconclusive: 31.6 µM [inhibitor, partial curve, poor fit]	–
CCc1ccc(NC(=O)c2ccc(F)c(S(=O)(=O)NCc3ccc(Cl)c(Cl)c3)c2)cc1	inconclusive: 31.6 µM [inhibitor, partial curve, poor fit]	–
Fc1ccc(-n2ncc3c(N4CCCCCC4)ncnc32)cc1	inconclusive: 25.1 µM [inhibitor, partial curve, poor fit]	–
CCOc1ccc(-n2nc(CO)c(C(=O)NCc3cccs3)n2)cc1	inconclusive: 3.55 µM [inhibitor, partial curve]	–
